Where a chain is given by its changes, count along the chain named. The list shows a part of the results.
T1: RBFOX1 RRM (Homo sapiens, UniProt Q9NWB1 109-208)
T1 sequence: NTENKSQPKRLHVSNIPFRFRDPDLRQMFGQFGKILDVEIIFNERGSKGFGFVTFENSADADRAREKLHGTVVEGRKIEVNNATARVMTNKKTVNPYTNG

B1: GGAACAA (DNA:RNA)
RNA: GGGAGACCGGAAUUCAGAUUGUCCGGAACAAUUAAAUCCCGUCGUAGCCACCA
DNA 1: CAATCTGAATTCCGGTCTCCC
DNA 2: TGGTGGCTACGACGGGATT
B2: AGUUUUU (DNA:RNA)
RNA: B1 RNA with G25A, A27U, A28U, C29U, A30U, A31U
DNA 1: CAATCTGAATTCCGGTCTCCC
DNA 2: TGGTGGCTACGACGGGATT
B3: UACUUCA (DNA:RNA)
RNA: B1 RNA with G25U, G26A, A27C, A28U, C29U, A30C
DNA 1: CAATCTGAATTCCGGTCTCCC
DNA 2: TGGTGGCTACGACGGGATT
B4: UGAGGCC (DNA:RNA)
RNA: B1 RNA with G25U, A28G, C29G, A30C, A31C
DNA 1: CAATCTGAATTCCGGTCTCCC
DNA 2: TGGTGGCTACGACGGGATT
B5: CCCUGUA (DNA:RNA)
RNA: B1 RNA with G25C, G26C, A27C, A28U, C29G, A30U
DNA 1: CAATCTGAATTCCGGTCTCCC
DNA 2: TGGTGGCTACGACGGGATT
B6: GAGCCAU (DNA:RNA)
RNA: B1 RNA with G26A, A27G, A28C, A31U
DNA 1: CAATCTGAATTCCGGTCTCCC
DNA 2: TGGTGGCTACGACGGGATT
B7: CGGUAGA (DNA:RNA)
RNA: B1 RNA with G25C, A27G, A28U, C29A, A30G
DNA 1: CAATCTGAATTCCGGTCTCCC
DNA 2: TGGTGGCTACGACGGGATT
B8: UAAGUUG (DNA:RNA)
RNA: B1 RNA with G25U, G26A, A28G, C29U, A30U, A31G
DNA 1: CAATCTGAATTCCGGTCTCCC
DNA 2: TGGTGGCTACGACGGGATT
B9: UCAUCCC (DNA:RNA)
RNA: B1 RNA with G25U, G26C, A28U, A30C, A31C
DNA 1: CAATCTGAATTCCGGTCTCCC
DNA 2: TGGTGGCTACGACGGGATT
B10: UGUAGGA (DNA:RNA)
RNA: B1 RNA with G25U, A27U, C29G, A30G
DNA 1: CAATCTGAATTCCGGTCTCCC
DNA 2: TGGTGGCTACGACGGGATT
B11: AAGAUAU (DNA:RNA)
RNA: B1 RNA with G25A, G26A, A27G, C29U, A31U
DNA 1: CAATCTGAATTCCGGTCTCCC
DNA 2: TGGTGGCTACGACGGGATT
B12: CAAAACG (DNA:RNA)
RNA: B1 RNA with G25C, G26A, C29A, A30C, A31G
DNA 1: CAATCTGAATTCCGGTCTCCC
DNA 2: TGGTGGCTACGACGGGATT
B13: GUAAGUG (DNA:RNA)
RNA: B1 RNA with G26U, C29G, A30U, A31G
DNA 1: CAATCTGAATTCCGGTCTCCC
DNA 2: TGGTGGCTACGACGGGATT
B14: AUGGGCG (DNA:RNA)
RNA: GGGAGACCGGAAUUCAGAUUGUCCAUGGGCGUUAAAUCCCGUCGUAGCCACCA
DNA 1: CAATCTGAATTCCGGTCTCCC
DNA 2: TGGTGGCTACGACGGGATT
B15: AGGUUGC (DNA:RNA)
RNA: B14 RNA with U26G, G28U, G29U, C30G, G31C
DNA 1: CAATCTGAATTCCGGTCTCCC
DNA 2: TGGTGGCTACGACGGGATT
B16: GAUAUCC (DNA:RNA)
RNA: B1 RNA with G26A, A27U, C29U, A30C, A31C
DNA 1: CAATCTGAATTCCGGTCTCCC
DNA 2: TGGTGGCTACGACGGGATT
B17: UGGCUAU (DNA:RNA)
RNA: B1 RNA with G25U, A27G, A28C, C29U, A31U
DNA 1: CAATCTGAATTCCGGTCTCCC
DNA 2: TGGTGGCTACGACGGGATT
B18: CUCUUGA (DNA:RNA)
RNA: B14 RNA with A25C, G27C, G28U, G29U, C30G, G31A
DNA 1: CAATCTGAATTCCGGTCTCCC
DNA 2: TGGTGGCTACGACGGGATT
B19: GUCUAAG (DNA:RNA)
RNA: B14 RNA with A25G, G27C, G28U, G29A, C30A
DNA 1: CAATCTGAATTCCGGTCTCCC
DNA 2: TGGTGGCTACGACGGGATT
B20: UGUAUUU (DNA:RNA)
RNA: B1 RNA with G25U, A27U, C29U, A30U, A31U
DNA 1: CAATCTGAATTCCGGTCTCCC
DNA 2: TGGTGGCTACGACGGGATT
B21: AGGGUAG (DNA:RNA)
RNA: B14 RNA with U26G, G29U, C30A
DNA 1: CAATCTGAATTCCGGTCTCCC
DNA 2: TGGTGGCTACGACGGGATT
B22: UUCCAGU (DNA:RNA)
RNA: B14 RNA with A25U, G27C, G28C, G29A, C30G, G31U
DNA 1: CAATCTGAATTCCGGTCTCCC
DNA 2: TGGTGGCTACGACGGGATT
B23: CGAACAU (DNA:RNA)
RNA: B1 RNA with G25C, A31U
DNA 1: CAATCTGAATTCCGGTCTCCC
DNA 2: TGGTGGCTACGACGGGATT
B24: AAUCAUU (DNA:RNA)
RNA: B14 RNA with U26A, G27U, G28C, G29A, C30U, G31U
DNA 1: CAATCTGAATTCCGGTCTCCC
DNA 2: TGGTGGCTACGACGGGATT
B25: AUGUUAC (DNA:RNA)
RNA: B14 RNA with G28U, G29U, C30A, G31C
DNA 1: CAATCTGAATTCCGGTCTCCC
DNA 2: TGGTGGCTACGACGGGATT
B26: ACUCUCC (DNA:RNA)
RNA: B14 RNA with U26C, G27U, G28C, G29U, G31C
DNA 1: CAATCTGAATTCCGGTCTCCC
DNA 2: TGGTGGCTACGACGGGATT
B27: UAUGGCG (DNA:RNA)
RNA: B14 RNA with A25U, U26A, G27U
DNA 1: CAATCTGAATTCCGGTCTCCC
DNA 2: TGGTGGCTACGACGGGATT
B28: AAACGUG (DNA:RNA)
RNA: B14 RNA with U26A, G27A, G28C, C30U
DNA 1: CAATCTGAATTCCGGTCTCCC
DNA 2: TGGTGGCTACGACGGGATT
B29: UCCUGUU (DNA:RNA)
RNA: B14 RNA with A25U, U26C, G27C, G28U, C30U, G31U
DNA 1: CAATCTGAATTCCGGTCTCCC
DNA 2: TGGTGGCTACGACGGGATT
B30: AAACGGG (DNA:RNA)
RNA: B14 RNA with U26A, G27A, G28C, C30G
DNA 1: CAATCTGAATTCCGGTCTCCC
DNA 2: TGGTGGCTACGACGGGATT
B31: UUCGGGG (DNA:RNA)
RNA: B14 RNA with A25U, G27C, C30G
DNA 1: CAATCTGAATTCCGGTCTCCC
DNA 2: TGGTGGCTACGACGGGATT

biological target: T1, RBFOX1 RRM; experiment: EMSA; HiTS-Eq, 1 nM pool, 10 min; buffer printed only for the single-RNA assays: 10 mM Tris pH 7.5, 150 mM NaCl, 3.4 mM EDTA, 0.001% NP-40, 30 C; conditions: tags: His6 N-terminal (pET28a); label: 5' 32P
Procedure, shortened: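 Purified wild-type or mutant RbFox RRM at increasing concentrations was equilibrated with 1 nM of 5′-radiolabelled RNA carrying 7 randomized nucleotides for 10 min in 50 µL. Unbound RNA was separated by 8% native PAGE and sequenced. Relative association constants came from read-count changes of each RNA species compared with the control reaction, normalised to the cognate motif.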

Binder | binding signal
B1 | 0.00387 KA relative to UGCAUGU
B2 | 0.0104 KA relative to UGCAUGU
B3 | 0.0037 KA relative to UGCAUGU
B4 | 0.0132 KA relative to UGCAUGU
B5 | 0.00209 KA relative to UGCAUGU
B6 | 0.00541 KA relative to UGCAUGU
B7 | 0.0125 KA relative to UGCAUGU
B8 | 0.0177 KA relative to UGCAUGU
B9 | 0.00242 KA relative to UGCAUGU
B10 | 0.00961 KA relative to UGCAUGU
B11 | 0.00164 KA relative to UGCAUGU
B12 | 0.000793 KA relative to UGCAUGU
B13 | 0.00969 KA relative to UGCAUGU
B14 | 0.0219 KA relative to UGCAUGU
B15 | 0.0211 KA relative to UGCAUGU
B16 | 0.00779 KA relative to UGCAUGU

Binder | binding signal
B17 | 0.0169 KA relative to UGCAUGU
B18 | 0.0144 KA relative to UGCAUGU
B19 | 0.00938 KA relative to UGCAUGU
B20 | 0.0114 KA relative to UGCAUGU
B21 | 0.0176 KA relative to UGCAUGU
B22 | 0.0069 KA relative to UGCAUGU
B23 | 0.0043 KA relative to UGCAUGU
B24 | 0.00261 KA relative to UGCAUGU
B25 | 0.00796 KA relative to UGCAUGU
B26 | 0.00262 KA relative to UGCAUGU
B27 | 0.0151 KA relative to UGCAUGU
B28 | 0.00619 KA relative to UGCAUGU
B29 | 0.0116 KA relative to UGCAUGU
B30 | 0.00602 KA relative to UGCAUGU
B31 | 0.00429 KA relative to UGCAUGU

Reference: publication PMC9911399, “Two distinct binding modes provide the RNA-binding protein RbFox with extraordinary sequence specificity”
